Patent US6818445B2 (Synaptic Pharmaceutical Corporation, priority 1994, dated 2004)

Legend:
human Y5 receptor [1] = molecular target: T1, human Y5 receptor (Homo sapiens, UniProt Q15761); test: Binding affinity of compounds vs. 125I-PYY at the cloned human Y5 receptor; settings: read-out: Binding Affinity (Ki (nM) vs. ^125I-PYY) Human Receptor Y5; Table 14
T1 sequence (Q15761 1-445): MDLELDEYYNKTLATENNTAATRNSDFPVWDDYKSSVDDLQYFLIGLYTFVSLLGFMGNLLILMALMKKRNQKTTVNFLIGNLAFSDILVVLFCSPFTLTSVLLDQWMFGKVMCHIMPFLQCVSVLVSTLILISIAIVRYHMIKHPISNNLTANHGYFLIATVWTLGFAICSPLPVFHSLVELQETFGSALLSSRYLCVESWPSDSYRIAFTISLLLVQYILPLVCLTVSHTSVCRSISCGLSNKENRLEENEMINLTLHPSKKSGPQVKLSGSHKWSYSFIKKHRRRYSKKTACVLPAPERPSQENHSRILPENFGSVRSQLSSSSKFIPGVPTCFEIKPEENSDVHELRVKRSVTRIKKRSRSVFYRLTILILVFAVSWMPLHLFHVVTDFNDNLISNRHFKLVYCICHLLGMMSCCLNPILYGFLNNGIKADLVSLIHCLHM

human Y5 receptor [2] = molecular target: T1, human Y5 receptor; settings: block of NPY-induced inhibition of cAMP accumulation, forskolin-stimulated LM(tk-) cells
human Y5 receptor [3] = molecular target: T1, human Y5 receptor; type: binding; settings: Gpp(NH)p 1 nM to 100 μM, 0.08 nM 125I-PYY
Method: FIG. 19 Guanine Nucleotide Modulation of Y5 Peptide Binding. […] Radioligand binding is reported as cpm, efficiency=0.8. For the human Y5 in LM(tk-) (0.007 mg membrane protein/sample), the maximum Δcpm=−2343. Given a specific activity of 2200 Ci/mmol, the change in radioligand binding is therefore calculated to be −0.6 fmol/0.007 mg protein=−85 fmol/mg membrane protein.
For a given G protein-coupled receptor, a portion of the receptor population can typically be characterized in the high affinity ligand binding site using discriminating agonists. The binding of GTP or a non-hydrolyzable analog to the G protein causes a conformational change in the receptor which favors a low affinity ligand binding state.

Cl.O=S(=O)(NC[C@H]1CC[C@H](CNCC2CCc3ccccc3C2)CC1)c1cccc2ccccc12 (some centres unmarked) [Compound 19]
Ki (human Y5 receptor [1]): 11 nM
Kb (human Y5 receptor [2]): 23 nM

Cl.O=[N+]([O-])c1ccccc1S(=O)(=O)NC[C@H]1CC[C@H](CNCC2CCc3ccccc3C2)CC1 (some centres unmarked) [Compound 20]
Ki (human Y5 receptor [1]): 8.3 nM
Kb (human Y5 receptor [2]): 26 nM

Cl.O=S(=O)(NCC1CCC(CNCc2ccc3ccccc3c2)CC1)c1ccccc1C(F)(F)F (centres unmarked) [Compound 21]
Ki (human Y5 receptor [1]): 9.8 nM
Kb (human Y5 receptor [2]): 16 nM

Cl.Cl.Nc1ccccc1S(=O)(=O)NCC1CCC(CNCC2CCc3ccccc3C2)CC1 (centres unmarked) [Compound 22]
Ki (human Y5 receptor [1]): 11 nM
Kb (human Y5 receptor [2]): 3 nM

Cl.O=S(=O)(NCC1CCC(CNCc2cccc3ccccc23)CC1)c1ccccc1C(F)(F)F (centres unmarked) [Compound 23]
Ki (human Y5 receptor [1]): 26 nM
Kb (human Y5 receptor [2]): 38 nM

Nc1nc2c(ncn2[C@@H]2O[C@H](COP(=O)(O)OP(=O)(O)NP(=O)(O)O)[C@@H](O)[C@H]2O)c(=O)[nH]1 [Gpp(NH)p]
change in radioligand (125I-PYY) binding (human Y5 receptor [3]): −85 fmol/mg membrane protein
